Structures can show the parent of a compound that is named as a salt. Where two headings read alike, the source gives them in different places.

On the set-up of this series: key to flux: **: lower than HPLC sensitivity. As for the experimental part: The amount of narcotic agent(s) in the skin diffusion samples studied was quantified using the following high pressure liquid chromatography (HPLC) assay. An HPLC method, which employed an isocratic mobile phase, a CN column and a UV detector, was used for the quantitation of all three narcotic compounds present in the skin diffusion samples. Over a concentration range of 3 to 50 ug/ml, the system is reproducible and linear. The retention times for morphine, oxymorphone, and hydromorphone are 8.3, 8.7 and 9.7 minutes, respectively, with this system.
A 2:8 mixture of acetonitrile and a solution of 0.05 M ammonium phosphate adjusted to pH 3 with phosphoric acid and diluted 1 to 16 with water.
Dupont Zorbax CN 4.6 mm (internal diameter) × 25 cm (length) column.
Spectra Physics SP4270 Computing Integrator
Isotonic Citrate/Phosphate Buffer PH 4.5
Male hairless mice, approximately 6-8 weeks old, were sacrificed by cervical dislocation. Square sections of skin (about 3-5 cm²) were excised from the animals with surgical scissors. The skin was mounted on Franz® diffusion cells with the dermal side facing the receiver compartment, and leached with saline for 2 hours before use. Temperature was maintained at 37°C during the experiment.

On to `CC1CC(=O)NN=C1c1ccc(-n2ccnc2)cc1` (stereo not drawn) [Compound I Base], for which the flux came to 114.3 ug/cm²/h and the lag time result is reported as “about 3.5 hours”. In the case of `CCC(NC(C)C)C(O)c1ccc(O)c2[nH]c(=O)ccc12` (stereo not drawn) [Procaterol Hydrochloride], the flux result (Solvent System PG, approximate concentration 5 mg/ml) is on record as “**”.

(Values after EP0255485A2, “Transdermal compositions” (priority 1986, dated 1988).)
